Test results as given in PMC9596381 (2022).

Legend:
Assay in all cases: SPR
[1] = target: mouse Unc5A ectodomain, residues 1-359 (mUnc5A^ecto) (mouse, UniProt Q8K1S4 26-359, biotin on the Avi-tag)
[2] = target: rat Unc5D ectodomain (rUnc5D^ecto) (rat, UniProt F1LW30 31-382, biotin on the Avi-tag where immobilised)
[3] = target: Unc5B ectodomain used in SPR (Unc5B^ecto) ( (human or mouse cDNA cloned), UniProt Q8K1S3 27-377, biotin on the Avi-tag)
UniProt Q8K1S3, sequence (Q8K1S3 other isoform, or with tags, fused parts or gaps): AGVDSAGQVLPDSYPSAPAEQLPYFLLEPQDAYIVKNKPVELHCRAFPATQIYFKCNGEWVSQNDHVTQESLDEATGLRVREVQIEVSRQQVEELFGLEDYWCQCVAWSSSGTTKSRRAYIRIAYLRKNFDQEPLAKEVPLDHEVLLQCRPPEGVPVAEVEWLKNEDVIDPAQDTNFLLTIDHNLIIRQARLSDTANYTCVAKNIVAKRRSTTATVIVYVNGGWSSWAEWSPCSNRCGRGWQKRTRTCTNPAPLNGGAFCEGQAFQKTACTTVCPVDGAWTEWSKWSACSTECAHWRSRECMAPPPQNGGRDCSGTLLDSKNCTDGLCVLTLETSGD

UniProt Q8K1S4, sequence (Q8K1S4 26-359): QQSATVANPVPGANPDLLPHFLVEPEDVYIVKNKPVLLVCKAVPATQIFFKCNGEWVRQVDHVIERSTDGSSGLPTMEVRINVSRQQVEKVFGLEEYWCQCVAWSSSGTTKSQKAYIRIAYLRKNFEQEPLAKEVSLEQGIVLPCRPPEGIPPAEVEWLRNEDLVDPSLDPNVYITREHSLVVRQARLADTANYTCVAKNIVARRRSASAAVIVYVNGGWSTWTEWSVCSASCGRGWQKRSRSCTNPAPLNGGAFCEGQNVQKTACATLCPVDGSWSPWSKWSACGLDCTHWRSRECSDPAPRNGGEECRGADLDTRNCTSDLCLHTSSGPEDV
UniProt F1LW30, sequence (F1LW30 31-382): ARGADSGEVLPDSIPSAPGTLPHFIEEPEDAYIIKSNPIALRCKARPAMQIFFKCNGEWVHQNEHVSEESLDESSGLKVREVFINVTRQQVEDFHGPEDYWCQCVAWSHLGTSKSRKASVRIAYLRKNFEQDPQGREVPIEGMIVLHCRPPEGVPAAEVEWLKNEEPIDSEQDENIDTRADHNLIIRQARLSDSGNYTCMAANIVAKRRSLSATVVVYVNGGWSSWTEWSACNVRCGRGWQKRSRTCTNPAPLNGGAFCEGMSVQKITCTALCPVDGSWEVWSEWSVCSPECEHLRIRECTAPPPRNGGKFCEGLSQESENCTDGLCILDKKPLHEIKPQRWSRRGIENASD

Kd [1]: 886 nM | Kd [2]: 366 nM | Kd [3]: 369 nM
B1: human glypican-3 core domain, […] (hGPC3^core) (domain or fragment)
chain: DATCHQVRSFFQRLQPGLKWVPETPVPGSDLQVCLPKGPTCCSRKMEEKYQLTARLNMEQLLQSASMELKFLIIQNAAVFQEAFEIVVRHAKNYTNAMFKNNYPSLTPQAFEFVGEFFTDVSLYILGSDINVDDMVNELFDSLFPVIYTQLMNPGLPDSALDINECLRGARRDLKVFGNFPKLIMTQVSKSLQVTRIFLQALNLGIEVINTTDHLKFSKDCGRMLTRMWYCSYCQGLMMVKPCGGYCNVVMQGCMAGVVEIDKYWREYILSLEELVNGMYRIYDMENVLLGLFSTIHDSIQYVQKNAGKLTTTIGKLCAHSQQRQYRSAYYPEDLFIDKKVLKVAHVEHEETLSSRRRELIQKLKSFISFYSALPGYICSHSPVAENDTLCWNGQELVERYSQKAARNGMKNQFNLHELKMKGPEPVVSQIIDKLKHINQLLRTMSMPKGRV
modifications: N-linked glycans at N124 and N241
